Measurements: the supplement of paper PMC12217912
The list shows a part of the results. The full chains were built here from the parent and the listed change. Values near 0.05 are background.

B1: TEV protease; numbered along this chain (parent)
chain: MGESLFKGPRDYNPISSSICHLTNESDGHTTSLYGIGFGPFIITNKHLFRRNNGTLVVQSLHGVFKVKDTTTLQQHLVDGRDMIIIRMPKDFPPFPQKLKFREPQREERICLVTTNFQTKSMSSMVSDTSCTFPSGDGIFWKHWIQTKDGQCGSPLVSTRDGFIVGIHSASNFTNTNNYFTSVPKNFMELLTNQEAQQWVSGWRLNADSVLWGGHKVFMVKPEEPFQPVKEATQL

Variants of: B1
Assay: raw area under fraction-flipped curve 0-4 h after induction (AUC4h, not background-subtracted), DNA-recorder readout of cleavage of the substrate (dimensionless); higher = more cleavage of the substrate by the protease variant
Settings: temperature: 34 °C; time window: 0-4 h after rhamnose induction
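Further: Bxb1 expression induced with 0.2% (w/v) L-rhamnose at OD600 near 0.5, cultures sampled hourly, flipped fraction per protease–substrate barcode pair counted by paired-end Illumina sequencing.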

Variant	area with substrate ENLYDQS	area with substrate ENLYEQS	area with substrate ENLYGQS	area with substrate ENLYIQS	area with substrate ENLYKQS	area with substrate ENLYNQS	area with substrate ENLYPQS	area with substrate ENLYQQS	area with substrate ENLYSQS	area with substrate ENLYTQS	area with substrate ENLYWQS	area with substrate ENLYYQS	area with substrate ENLYHQS	area with substrate ENLYMQS	area with substrate ENLYRQS	area with substrate ENLYVQS	area with substrate ENLYLQS
MGESLFKGPRDYNPISSSICHLTNESDGHTTSLYGIGFGPFIITNKHLFRRNNGTLVVQSLHGVRKVKDTTTLQQHLVDGRDMIIIRMPKDFPPFPQKLKFREPQREERICLVTTNFQTKSMSSMVSDTSCTFPSGDGIFWKHWIQTKDGQCGSPLVSTRDGFIVGIHSASNFTNTNNYFTSVPKNFMELLTNQEAQQWVSGWRLNADSVLWGGHKVFMVKPEEPFQPVKEATQL [F65R]	0.0553	0.147	0.0724	0.0816	0.0598	0.0903	0.0799	0.0602	0.0728	0.0681	0.0636	0.0691					
MGESLFKGPRDYNPISSSICHLTNESDGHTTSLYGIGFGPFIITNKHLFRRNNGTLVVQSLHGVFFVKDTTTLQQHLVDGRDMIIIRMPKDFPPFPQKLKFREPQREERICLVTTNFQTKSMSSMVSDTSCTFPSGDGIFWKHWIQTKDGQCGSPLVSTRDGFIVGIHSASNFTNTNNYFTSVPKNFMELLTNQEAQQWVSGWRLNADSVLWGGHKVFMVKPEEPFQPVKEATQL [K66F]	0.0607	0.0708	0.0664	0.123	0.0446	0.0645		0.0661	0.0798	0.0609	0.0819	0.0697	0.0946	0.0969	0.0527		
MGESLFKGPRDYNPISSSICHLTNESDGHTTSLYGIGFGPFIITNKHLFRRNNGTLVVQSLHGVFKRKDTTTLQQHLVDGRDMIIIRMPKDFPPFPQKLKFREPQREERICLVTTNFQTKSMSSMVSDTSCTFPSGDGIFWKHWIQTKDGQCGSPLVSTRDGFIVGIHSASNFTNTNNYFTSVPKNFMELLTNQEAQQWVSGWRLNADSVLWGGHKVFMVKPEEPFQPVKEATQL [V67R]	0.0517	0.0565		0.0689	0.056	0.0536	0.0591		0.0576		0.0647			0.064	0.0511		
MGESLFKGPRDYNPISSSICHLTNESDGHTTSLYGIGFGPFIITNKHLFRRNNGTLVVQSLHGVFKVKQTTTLQQHLVDGRDMIIIRMPKDFPPFPQKLKFREPQREERICLVTTNFQTKSMSSMVSDTSCTFPSGDGIFWKHWIQTKDGQCGSPLVSTRDGFIVGIHSASNFTNTNNYFTSVPKNFMELLTNQEAQQWVSGWRLNADSVLWGGHKVFMVKPEEPFQPVKEATQL [D69Q]	0.0621	0.0641	0.0708	0.0869	0.0645	0.0637	0.0694				0.0786	0.0611	0.057	0.0828	0.0683	0.0928	
MGESLFKGPRDYNPISSSICHLTNESDGHTTSLYGIGFGPFIITNKHLFRRNNGTLVVQSLHGVFKVKDTTPLQQHLVDGRDMIIIRMPKDFPPFPQKLKFREPQREERICLVTTNFQTKSMSSMVSDTSCTFPSGDGIFWKHWIQTKDGQCGSPLVSTRDGFIVGIHSASNFTNTNNYFTSVPKNFMELLTNQEAQQWVSGWRLNADSVLWGGHKVFMVKPEEPFQPVKEATQL [T72P]	0.0491	0.0542		0.0881	0.0527	0.05	0.0481	0.042		0.0633	0.0679		0.071		0.0595	0.0815	0.054
MGESLFKGPRDYNPISSSICHLTNESDGHTTSLYGIGFGPFIITNKHLFRRNNGTLVVQSLHGVFKVKDTTTGQQHLVDGRDMIIIRMPKDFPPFPQKLKFREPQREERICLVTTNFQTKSMSSMVSDTSCTFPSGDGIFWKHWIQTKDGQCGSPLVSTRDGFIVGIHSASNFTNTNNYFTSVPKNFMELLTNQEAQQWVSGWRLNADSVLWGGHKVFMVKPEEPFQPVKEATQL [L73G]	0.0312	0.0561	0.05	0.0562	0.0515	0.0463	0.0489	0.0291		0.0428			0.04	0.047	0.0415	0.0532	0.0499
MGESLFKGPRDYNPISSSICHLTNESDGHTTSLYGIGFGPFIITNKHLFRRNNGTLVVQSLHGVFKVKDTTTLQQHTVDGRDMIIIRMPKDFPPFPQKLKFREPQREERICLVTTNFQTKSMSSMVSDTSCTFPSGDGIFWKHWIQTKDGQCGSPLVSTRDGFIVGIHSASNFTNTNNYFTSVPKNFMELLTNQEAQQWVSGWRLNADSVLWGGHKVFMVKPEEPFQPVKEATQL [L77T]	0.0721	0.0676		0.0829	0.0545	0.0913			0.0693	0.0698			0.0718	0.0599	0.0645	0.0741	0.0672
MGESLFKGPRDYNPISSSICHLTNESDGHTTSLYGIGFGPFIITNKHLFRRNNGTLVVQSLHGVFKVKDTTTLQQHLVGGRDMIIIRMPKDFPPFPQKLKFREPQREERICLVTTNFQTKSMSSMVSDTSCTFPSGDGIFWKHWIQTKDGQCGSPLVSTRDGFIVGIHSASNFTNTNNYFTSVPKNFMELLTNQEAQQWVSGWRLNADSVLWGGHKVFMVKPEEPFQPVKEATQL [D79G]	0.0612	0.0705	0.0649		0.0644	0.0787	0.0682	0.0552	0.0712	0.06	0.0748	0.0558		0.0731	0.053	0.0939	
MGESLFKGPRDYNPISSSICHLTNESDGHTTSLYGIGFGPFIITNKHLFRRNNGTLVVQSLHGVFKVKDTTTLQQHLVDHRDMIIIRMPKDFPPFPQKLKFREPQREERICLVTTNFQTKSMSSMVSDTSCTFPSGDGIFWKHWIQTKDGQCGSPLVSTRDGFIVGIHSASNFTNTNNYFTSVPKNFMELLTNQEAQQWVSGWRLNADSVLWGGHKVFMVKPEEPFQPVKEATQL [G80H]	0.0651	0.0593	0.0712	0.117	0.022	0.0705	0.068	0.0651		0.0514	0.0816				0.0409	0.119	
